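96-well plates; 48 h exposure; 5 concentrations. Endpoints by linear interpolation between flanking doses. Not reached: highest tested concentration assigned. Abbreviation: GI50, concentration required for 50% inhibition of growth. TGI: concentration producing complete growth inhibition.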
System: NCI-H322M lung
Assay: inhibition of tumour cell growth, NCI panel, 48 h

Structure (SMILES): CN(C)c1nc(NCCNS(=O)(=O)c2ccc(C3=Nc4c(N)nc(N)nc4NC(c4ccc(F)cc4)C3)cc2)nc(Nc2ccc(F)cc2)n1 (configuration not stated)
- GI50: > 100 µM
- TGI: > 100 µM
